The IC50 comes from the fitted curve, where viability falls to half of the control; fits outside the tested doses are given as limits. AUC sums up the same curve from the lowest dose to the 256-fold higher top dose; values near 1 show little effect. For some of these results: Where the top dose is marked as inferred, it was derived from the fitted curves, not read from the paper. For some of these results: Where an entry number is given, a second screen of the drug exists; the two often differ.
Tests used:
Assay in all cases: Viability of human cancer cell lines after 72 h of drug (GDSC screen)
CP466722 = compound: COc1cc2ncnc(-n3nc(-c4ccccn4)nc3N)c2cc1OC [CP466722]; conditions: top dose 16 µM; top dose inferred
Procedure: (§1)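 Human cancer cell lines in 384-well plates, medium with 10% serum, drug for 72 h over a 256-fold dose range (nine 2-fold or five 4-fold steps up to the top dose). Adherent lines were fixed and stained with the nucleic acid dye Syto60, suspension lines read with resazurin; signal relative to control wells, capped at 0 and 100%. One two-parameter sigmoid per drug and line, fitted in a mixed model over all curves with the slope shared within a line.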

ABT-869 = compound: Cc1ccc(F)c(NC(=O)Nc2ccc(-c3cccc4[nH]nc(N)c34)cc2)c1 [ABT-869]; conditions: top dose 1.024 µM; top dose inferred
Procedure: as §1

GSK269962A = compound: CCn1c(-c2nonc2N)nc2cnc(Oc3cccc(NC(=O)c4ccc(OCCN5CCOCC5)cc4)c3)cc21 [GSK269962A]; conditions: top dose inferred
Procedure: as §1

Zibotentan = compound: COc1nc(C)cnc1NS(=O)(=O)c1cccnc1-c1ccc(-c2nnco2)cc1 [Zibotentan]; conditions: top dose 20 µM; top dose inferred
Procedure: as §1

MPS-1-IN-1 = compound: COc1cc(N2CCC(O)CC2)ccc1Nc1cc(Nc2ccccc2S(=O)(=O)C(C)C)c2cc[nH]c2n1 [MPS-1-IN-1]; conditions: top dose 20 µM; top dose inferred
Procedure: as §1

Cytarabine = compound: Nc1ccn([C@@H]2O[C@H](CO)[C@@H](O)[C@@H]2O)c(=O)n1 [Cytarabine]; conditions: top dose 2 µM
Procedure: as §1

(5Z)-7-Oxozeaenol = compound: COc1cc(O)c2c(c1)/C=C/C[C@H](O)[C@H](O)C(=O)/C=C\C[C@H](C)OC2=O [(5Z)-7-Oxozeaenol]; conditions: top dose 10 µM; top dose inferred
Procedure: as §1

Thapsigargin = compound: C/C=C(/C)C(=O)O[C@H]1C(C)=C2[C@H]([C@@H]1OC(=O)CCCCCCC)[C@@](C)(OC(C)=O)C[C@H](OC(=O)CCC)[C@@]1(O)[C@H]2OC(=O)[C@@]1(C)O [Thapsigargin]; conditions: top dose 0.512 µM; top dose inferred
Procedure: as §1

CHIR-99021 = compound: Cc1cnc(-c2cnc(NCCNc3ccc(C#N)cn3)nc2-c2ccc(Cl)cc2Cl)[nH]1 [CHIR-99021]
Procedure: as §1

ABT-888 = compound: C[C@]1(c2nc3c(C(N)=O)cccc3[nH]2)CCCN1 [ABT-888]; conditions: top dose 5 µM; top dose inferred
Procedure: as §1

KU-55933 = compound: O=c1cc(-c2cccc3c2Sc2ccccc2S3)oc(N2CCOCC2)c1 [KU-55933]; conditions: top dose 10 µM
Procedure: as §1

CMK = compound: Cc1ccc(-c2c(C(=O)CCl)n(CCCO)c3ncnc(N)c23)cc1 [CMK]; conditions: top dose 4 µM; top dose inferred
Procedure: as §1

QL-X-138 = compound: C=CC(=O)Nc1cc(-n2c(=O)ccc3cnc4ccc(-c5cn[nH]c5)cc4c32)ccc1C [QL-X-138]; conditions: top dose 10.24 µM; top dose inferred
Procedure: as §1

[1] = top dose 2.5 µM, screen: GDSC drug entry 127
[2] = top dose 5 µM, screen: GDSC drug entry 1192
[3] = top dose 2.56 µM, screen: GDSC drug entry 154
[4] = top dose 10 µM, screen: GDSC drug entry 1241, top dose inferred

Row | Cell Line | AUC (CP466722) | IC50 (CP466722) | AUC (ABT-869) | IC50 (ABT-869) | AUC (GSK269962A; [1]) | IC50 (GSK269962A; [1]) | AUC (GSK269962A; [2]) | IC50 (GSK269962A; [2]) | AUC (Zibotentan) | IC50 (Zibotentan) | AUC (MPS-1-IN-1) | IC50 (MPS-1-IN-1) | AUC (Cytarabine) | IC50 (Cytarabine) | AUC ((5Z)-7-Oxozeaenol) | IC50 ((5Z)-7-Oxozeaenol) | AUC (Thapsigargin) | IC50 (Thapsigargin) | AUC (CHIR-99021; [3]) | IC50 (CHIR-99021; [3]) | AUC (CHIR-99021; [4]) | IC50 (CHIR-99021; [4]) | AUC (ABT-888) | IC50 (ABT-888) | AUC (KU-55933) | IC50 (KU-55933) | AUC (CMK) | IC50 (CMK) | AUC (QL-X-138) | IC50 (QL-X-138)
1 | A3-KAW (B-cell lymphoma, suspension) | 0.575 | 1.54 µM | 0.989 | > 1.02 µM | 0.934 | > 2.5 µM | 0.839 | 2.47 µM | 0.991 | > 20 µM | 0.832 | 9.35 µM | 0.916 | 1.93 µM | 0.626 | 1.28 µM | 0.151 | 0.00378 µM | 0.993 | > 2.56 µM | 0.852 | 5.42 µM | 0.992 | > 5 µM | 0.991 | > 10 µM | 0.852 | 2.17 µM | 0.564 | 0.921 µM
2 | A4-Fuk (B-cell lymphoma, suspension) | 0.827 | 10.3 µM | 0.985 | > 1.02 µM | 0.972 | > 2.5 µM | 0.921 | > 5 µM | 0.978 | > 20 µM | 0.787 | 9.1 µM | 0.778 | 0.847 µM | 0.766 | 3.84 µM | 0.069 | < 0.002 µM | 0.985 | > 2.56 µM | 0.847 | 7.83 µM | 0.986 | > 5 µM | 0.944 | > 10 µM | 0.849 | 3.19 µM | 0.895 | > 10.2 µM
3 | A101D (melanoma, adherent) | 0.98 | > 16 µM | 0.981 | > 1.02 µM | 0.818 | 1.83 µM | 0.733 | 1.7 µM | 0.981 | > 20 µM | 0.95 | > 20 µM | 0.768 | 0.923 µM | 0.407 | 0.326 µM | 0.258 | 0.00541 µM | 0.95 | > 2.56 µM | 0.802 | 6.28 µM | 0.853 | > 5 µM | 0.805 | 6.48 µM | 0.796 | 2.37 µM | 0.981 | > 10.2 µM
4 | CHP-126 (neuroblastoma, suspension) | – | – | 0.976 | > 1.02 µM | 0.966 | > 2.5 µM | 0.986 | > 5 µM | 0.986 | > 20 µM | 0.848 | 15.4 µM | 0.956 | > 2 µM | 0.626 | 1.4 µM | 0.508 | 0.0337 µM | 0.955 | > 2.56 µM | 0.986 | > 10 µM | 0.987 | > 5 µM | 0.963 | > 10 µM | 0.853 | 3.25 µM | 0.804 | 5.26 µM
5 | EKVX (lung adenocarcinoma, adherent) | 0.938 | > 16 µM | 0.962 | > 1.02 µM | 0.957 | > 2.5 µM | 0.83 | > 5 µM | 0.969 | > 20 µM | 0.917 | > 20 µM | 0.958 | > 2 µM | 0.767 | 9.69 µM | 0.643 | 0.126 µM | – | – | – | – | 0.949 | > 5 µM | 0.899 | > 10 µM | 0.951 | > 4 µM | 0.863 | > 10.2 µM
6 | GAK (melanoma, adherent) | 0.943 | > 16 µM | – | – | 0.99 | > 2.5 µM | 0.947 | > 5 µM | 0.989 | > 20 µM | 0.975 | > 20 µM | 0.898 | > 2 µM | 0.752 | 3.18 µM | 0.615 | 0.0653 µM | 0.989 | > 2.56 µM | 0.956 | > 10 µM | 0.989 | > 5 µM | 0.98 | > 10 µM | 0.942 | > 4 µM | 0.872 | 8.96 µM
7 | HC-1 (hairy cell leukaemia, suspension) | 0.655 | 2.63 µM | 0.98 | > 1.02 µM | 0.987 | > 2.5 µM | 0.942 | > 5 µM | 0.979 | > 20 µM | – | – | 0.985 | > 2 µM | 0.503 | 0.635 µM | 0.706 | 0.119 µM | 0.984 | > 2.56 µM | 0.927 | > 10 µM | 0.987 | > 5 µM | 0.968 | > 10 µM | 0.9 | > 4 µM | 0.519 | 0.719 µM
8 | IA-LM (large cell lung carcinoma, adherent) | 0.918 | > 16 µM | 0.981 | > 1.02 µM | – | – | 0.94 | > 5 µM | 0.979 | > 20 µM | 0.964 | > 20 µM | 0.897 | > 2 µM | 0.749 | 3.6 µM | 0.2 | 0.00362 µM | – | – | – | – | 0.981 | > 5 µM | 0.945 | > 10 µM | 0.835 | 3.09 µM | 0.738 | 3.36 µM
9 | IST-SL2 (small cell lung carcinoma, suspension) | 0.717 | 4.09 µM | 0.987 | > 1.02 µM | 0.816 | 1.37 µM | 0.967 | > 5 µM | – | – | – | – | 0.827 | 1.2 µM | 0.805 | 4.98 µM | 0.272 | 0.00724 µM | 0.987 | > 2.56 µM | 0.903 | > 10 µM | 0.989 | > 5 µM | 0.952 | > 10 µM | 0.865 | 3.47 µM | 0.407 | 0.357 µM

— the supplement of paper PMC4967469
